In paper PMC12040169 (PLOS Biology, 2025):
The other results are listed elsewhere or left out.

Tested on: T1, C. trachomatis L2/434/Bu expressing GFP (CTL2-GFP)
T1 construct: L2/434/Bu GFP intracellular growth in HeLa cells
Parameters: species or system HeLa; C. trachomatis total inclusion area by high-content imaging, normalised to DMSO
Conditions: total inclusion area; 28.5 h, 10 µM; inhibitor
In short: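 Imaging read-out: GFP inclusions and Hoechst nuclei captured by high-content imaging after fixation. Inclusion area/number = chlamydial growth; nuclei count = host cell viability. MIC calculated per earlier method.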

SMILES | % of control remaining
COc1ccc(Sc2nc3ccccc3nc2N2CCCC2)cc1OC [CBK093797] | 108.99
COC(=O)c1ccccc1NC(=O)CN(C)S(=O)(=O)c1c(C)cc(C)cc1C [CBK266241] | 103.065
C=C(C)CNC(=O)c1ccc(C)nc1N1CCN(C(=O)c2ccco2)CC1 [CBK076401] | 80.3671
OCCSCc1ccc2nonc2c1 [CBK020617] | 25.2771
CCn1c2ccccc2c2cc(NC(=O)C(C)Sc3n[nH]c(=O)n3C3CC3)ccc21 (stereo not drawn) [CBK296636] | 91.6252
CC(C)(CO)CNc1cncc(-c2cccc(Cl)c2)n1 [CBK037862] | 74.3487
O=C(c1ccc2c(c1)OCO2)N1CCN(C(=O)c2ccc(Cl)cc2F)CC1 [CBK296685] | 114.581
CCn1c(COc2ccc(Cl)c3cccnc23)nnc1SC [CBK266611] | 106.572
CCn1c(=O)n(CC(=O)N2CCCC2)c2cccnc21 [CBK283904] | 85.6986
O=C(O)C(Cc1c[nH]cn1)N1C(=O)C2CC=C(Cl)CC2C1=O (stereo not drawn) [CBK286871] | 85.5506
CCOC(=O)CNS(=O)(=O)c1ccc(-c2ccccc2)cc1 [CBK034435] | 84.2243
O=c1ccc2cccc(OCCO)c2o1 [CBK149730] | 75.395
Cc1cc(-c2ccc(=O)n(CCNC(=O)C3CCC3)n2)c(C)o1 [CBK284520] | 70.8399
O=C(NC(c1ccccc1)c1ccco1)C1CCN(CCc2c[nH]c3ccccc23)CC1 (stereo not drawn) [CBK148290] | 105.791
CC(=O)N1CCc2cc(-c3cc4cc(C)ccn4c3)ccc21 [CBK285228] | 112.004
O=C(O)c1cccc(NS(=O)(=O)c2ccc3c(c2)OCCO3)c1 [CBK155697] | 104.365
CCCc1ccc(S(=O)(=O)Nc2ccc(C(=O)N3CCN(C)CC3)cc2)cc1 [CBK034547] | 95.9161
O=C(Nc1cccc(Cl)c1Cl)N1CCC(n2c(=O)[nH]c3ccccc32)CC1 [CBK149856] | 93.0045
Cc1cc(Oc2ccccc2)nc(Oc2ccc(=O)n(-c3ccccc3)n2)n1 [CBK269843] | 81.5585
O=[N+]([O-])c1ccc(CSc2nnc(-c3cccs3)n2Cc2ccco2)cc1 [CBK267588] | 91.377
COCCNc1nc(-c2cccc(C(N)=O)c2)cnc1N [CBK063901] | 97.7651
Cc1cc(COc2nccnc2N2CCN(Cc3ccc([N+](=O)[O-])cc3)CC2)no1 [CBK084189] | 75.8107
COc1ccc(Cl)cc1NC(=S)NCCn1cc(Cl)cn1 [CBK267063] | 125.262
O=C(CN1CCN(Cc2ccc3c(c2)OCO3)CC1)Nc1ccc(Cl)cc1C(=O)c1ccccc1 [CBK264241] | 95.3634
COc1cc(C(=O)Nc2cc(-c3nc4ncccc4o3)ccc2C)cc(OC)c1OC [CBK101133] | 116.835
Cn1c(NC(=O)c2ccccc2[N+](=O)[O-])cc(=O)n(C)c1=O [CBK294417] | 119.381

SMILES | % of control remaining
O=C(OCc1nc2ccccc2[nH]1)N1CCOCC1 [CBK200146] | 93.8672
CNC(=O)c1sc2ccccc2c1C1CCN(Cc2cnc(-c3ccc(C)cc3)nc2)C1 (stereo not drawn) [CBK285883] | 70.7643
CN(C)C(=O)c1ccc(-c2ccc(OC3CCN(C(=O)CCC(=O)N4CCCC4)CC3)nc2)cc1 [CBK155051] | 79.8399
O=C1/C(=C/c2ccc(OCc3cccc([N+](=O)[O-])c3)cc2)SC(=S)N1CCc1ccccc1 [CBK264641] | 106.353
O=C(c1cccnc1)N1CCCC(n2cnc3cc(F)ccc32)C1 (stereo not drawn) [CBK284474] | 110.465
O=C(Nc1ccc(-c2noc(COc3ccc(Br)cc3)n2)cc1)c1ccc2c(c1)OCO2 [CBK266692] | 94.1617
CCC(Oc1nc2ccccc2nc1-c1ccccc1NC(C)=O)C(=O)c1ccccc1 (stereo not drawn) [CBK267315] | 77.1004
CCN1CCN(C(=O)c2cccc(N(C)C)c2)C(Cc2ccc(-c3ccncc3)cc2)C1=O (stereo not drawn) [CBK285813] | 102.195
CC(C)(C)c1nn(CC2CCCCC2)c(=N)s1 [CBK075042] | 45.4777
O=C(Nc1ccc(S(=O)(=O)Nc2ccc(Cl)c(C(F)(F)F)c2)cc1)c1ccc(CN2CCOCC2)cc1 [CBK264777] | 73.9921
c1cnc(NCc2cc3n(n2)CCN(CC2CCCCC2)C3)cn1 [CBK307592] | 73.6887
CCC(CC)C(=O)N1c2ccccc2C(C)(c2ccccc2)CC1(C)C (stereo not drawn) [CBK073862] | 43.7295
CC(NC(=O)c1ncoc1-c1ccccc1Cl)c1ccccn1 (stereo not drawn) [CBK282409] | 135.552
CC(c1ccc(S(C)(=O)=O)cc1)N(C)C(=O)COc1ccc2ccccc2c1 (stereo not drawn) [CBK296738] | 107.661
CC(=O)N1CCc2sccc2C1c1ccc(NCc2ccc(F)c(F)c2)cc1 (stereo not drawn) [CBK286452] | 101.944
O=[N+]([O-])c1cccc(/C=N/Nc2nc(-c3ccccc3)cc(-c3ccccc3O)n2)c1 [CBK261722] | 97.7936
Cc1cc(C)cc(NC(=O)CSc2ncccn2)c1 [CBK287577] | 107.162
C=CCc1cc(C)cc(C)c1OCCN1CCN(CC)CC1 [CBK267392G] | 115.747
CC(=O)NC(N(C)S(=O)(=O)c1ccc(C)cc1)C(Cl)(Cl)Cl (stereo not drawn) [CBK262662] | 98.5368
CC(C)(C)c1ccc(OCC(O)CNS(=O)(=O)O)cc1 (stereo not drawn) [CBK261169N] | 84.2913
CCC(=O)N1CCc2cc(C(O)CN3CCCCC3C)ccc21 (stereo not drawn) [CBK283112] | 111.319
COc1ccc([C@@]23CC[C@@H](NC(=O)CNc4ccc(Cl)c(Cl)c4)C[C@@H]2N(C)CC3)cc1OC [CBK038220] | 61.5076
Cc1nc(C(=N)N)nc2ccccc12 [CBK010368C] | 46.6357
CC(=O)c1ccc(C(=O)Nc2sc3c(c2C#N)CCN(C(C)=O)C3)cc1 [CBK304418] | 78.0069
Cc1ccc(/C=C2\SC(=S)N(CC(=O)Nc3cccc(C(=O)O)c3)C2=O)cc1 [CBK263935] | 102.764
Cc1csc(-c2ccc(C(=O)N3CCN(C)CC3)c(N3CCOCC3)n2)c1 [CBK106195] | 83.7701

SMILES | % of control remaining
CC(C)(C)C1CCC(=NNC(=O)c2ccc(CN3CCOCC3)cc2)CC1 (stereo not drawn) [CBK018812] | 97.5993
Cc1nnc2ncc(-c3ccccc3C(=O)N(C(C)C)C(C)C)cn12 [CBK307393] | 108.295
O=C(CC(CC(=O)c1ccc(Cl)cc1)c1ccccc1C(=O)O)c1ccc(Cl)cc1 [CBK265604] | 100.005
CCCCN(C(=O)c1cc(C)nc2ccccc12)c1ccccc1 [CBK296926] | 90.3408
O=C(Nc1nc(-c2cc3ccccc3o2)cs1)c1ccc(F)cc1 [CBK287756] | 110.522
Cc1ccc(C(=O)NC(=O)CSc2nc(N)n[nH]2)cc1 [CBK267523] | 108.105
COc1cccc(-c2noc(C3CCN(CCc4ccccc4)CC3)n2)c1 [CBK051455] | 77.7623
O=C(O)c1cccc(S(=O)(=O)N2CCC(C(=O)O)CC2)c1 [CBK267199] | 108.493
COc1cc(C(=S)N2CCN(C)CC2)ccc1OCC(N)=O [CBK269037] | 104.563
O=C(O)c1cccc(NS(=O)(=O)c2ccc(CNC(=O)c3ccc(Cl)cc3)s2)c1 [CBK155085] | 88.1497
CCc1cccc2c(CN3CCc4c(nc(C)[nH]c4=O)C3)c[nH]c12 [CBK283993] | 82.3705
CCC1(c2ccccc2)OCC(C2CCCCN2)O1 (stereo not drawn) [CBK023284C] | 91.502
O=C(O)CN1C(=O)C(O)=C(C(=O)c2ccc(Cl)cc2)C1c1ccccc1[N+](=O)[O-] (stereo not drawn) [CBK263794] | 123.988
CC(C)(c1ccc(Oc2cccc(N)c2)cc1)c1ccc(Oc2cccc(N)c2)cc1 [CBK260958] | 83.1298
CC(C)CN(Cc1cccs1)C(=O)c1cc2n(n1)CCCN(C)C2 [CBK306793] | 76.9761
CCN(CC(=O)NCc1ccc(F)cc1)C(=O)c1cc(C#N)c[nH]1 [CBK305221] | 52.6929
Cc1cc(C2(C(F)(F)F)C=C3c4ccccc4CC(C)(C)N3C2=O)cc(C)c1O (stereo not drawn) [CBK017463] | 78.1746
CCCS(=O)(=O)Nc1nccnc1-c1cccs1 [CBK050763] | 107.149
COCCn1cc(C(=O)N2CCCC2c2cc(C)on2)c2ccccc21 (stereo not drawn) [CBK305289] | 37.716
COC[C@H]1CCCN1C(=O)CC[C@H]1CNC(=O)[C@@H]2[C@@H](CCN2C(C)C)N1C [CBK289038] | 81.8545
FC(F)(F)c1cccc(Sc2cccs2)n1 [CBK115242] | 97.0878
O=c1[nH]c2ccccc2n1CCCN1CCC(Oc2cncc(OCC3COc4ccccc4O3)n2)C1 (stereo not drawn) [CBK084380] | 94.325
Cc1nn(-c2ccccn2)c(C)c1[C@@H]1C=C[C@@H](NC(=O)CCC(=O)O)C1 [CBK289170] | 86.3311
Cc1cccc2c1OCC[C@@H]2Oc1cncc(N2CCNCC2)n1 [CBK172310G] | 70.7051
COc1cccc(C(=O)N2CCC(NC(=O)Cc3ccc(F)cc3)CC2)c1 [CBK155027] | 87.2425
O=CN1CCc2c([nH]c3cc(F)ccc23)C12CCN(CCc1ccc3c(c1)OCO3)CC2 [CBK039614] | 69.1079
